Sequences and labels used below:
B1: CPEB3 Ribozyme (parent)
chain: UAACAGGGGGCCACAGCAGAAGCGUUCACGUCGCAGCCCCUGUCAGAUUCUGGUGAAUCUGCGAAUUCUGCUGUAUAUCUC

Read counts are not given, so values of variants with three or more changes are uncertain.

In this data set the parent is B1. The data set is described as follows: self-cleavage, relative activity (ratio to wild type); higher = more cleavage; in vitro, sequencing. The gist of the method: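 Relative activity compares each variant's cleaved/total read fraction with that of the unmutated ribozyme. To get these fractions, barcoded CPEB3 ribozyme libraries from rounds of error-prone PCR were transcribed with T7 RNA polymerase for 5 hours at 37°C and then given 15 min of DNase I treatment before EDTA was added. The RNAs were reverse transcribed with template switching and sequenced on Illumina, and DNA sequencing linked barcodes to variants. A minimum of 5 reads applied, and three batches were averaged.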
For the variant A2G G10U G24A A35G U43C U80A, the self-cleavage turned out to be 0.04.

Regarding A2G U25C G63U, the self-cleavage was determined as 0.09.

On to A2G U51C U54A, for which the self-cleavage is 0.68.

As for A2G U25C G33C U54A, the self-cleavage was determined as 0.39.

As for A2G G24C U25C U31C U51C U60A, the self-cleavage was determined as 0.35.

Regarding A2G G33A G36U U80C, the self-cleavage was found to be 0.31.

With A2G G10A A20G U51A, the self-cleavage was 0.4.

Consider A2G U25C U31C U60C, for which the self-cleavage is 0.08.

On to A2G U43A U54A, for which the self-cleavage was found to be 1.04.

As for A2G G10A U69A U74C, the self-cleavage was 0.2.

Take A2G U26C A65C U69A: the self-cleavage was found to be 0.21.

For A2G U43C U78C, the self-cleavage worked out at 0.51.

In the case of A2U A3G A15G C32G U49A, the self-cleavage came out at 0.14.

As to A2G U31A G46A U48C U51A A56U A75C, the self-cleavage is 0.07.

A2G U31C U41G: the self-cleavage was 0.41.

In the case of A2U A3G A18G A35G A64U U76C, the self-cleavage came to 0.51.

As for A2G U26C C44U U54C, the self-cleavage stood at 0.1.

Turning to A2G U25C A77G, the self-cleavage was determined as 0.26.

As for A2G U25A C37G A57G, the self-cleavage came to 0.74.

As to A2G U25C U31C A56U, the self-cleavage was 0.39.

On to A2G U25C A45G U48C A75C, for which the self-cleavage was 0.09.

For the variant A2G G24C A28G A35G U43G U49A U51A, the self-cleavage turned out to be 0.04.

On to A2G G30U U43C C79U, for which the self-cleavage stood at 0.12.

As for A2G U31C U41C U72C U76C, the self-cleavage is 0.71.

Turning to A2G U43C U54C A75U A77G, the self-cleavage was determined as 0.44.

For the variant A2G U26A U66C U69C, the self-cleavage is 0.17.

With A2G U60C U69A, the self-cleavage came to 0.18.

For A2G U60C G73A, the self-cleavage turned out to be 0.65.

Take A2G G22C A28G: the self-cleavage was found to be 0.08.

Regarding A2G G16A A47G, the self-cleavage was determined as 0.09.

With A2G U26C U31G, the self-cleavage came out at 0.28.

For A2G U41C G42A A45G U49C U66C U67A, the self-cleavage worked out at 0.17.

With A2G U26C G63A A75G, the self-cleavage is 0.13.

For the variant A2G G30U A35U A47G U54C A57G U72C, the self-cleavage came to 0.07.

A2G U26C U31A U41C U76C A77U: the self-cleavage was determined as 0.25.

Regarding A2G G19U G61C, the self-cleavage came out at 0.2.

Turning to A2G G24A A35G U78C U80A, the self-cleavage came out at 0.23.

A2G U31C C39U G73A: the self-cleavage stood at 0.9.

As to A2G U76A U78A, the self-cleavage was determined as 0.82.

For the variant A2G G10U A15U, the self-cleavage was determined as 0.28.

In the case of A2G U54C U69C G70A, the self-cleavage is 0.16.

As to A2G G42A U51C U58C, the self-cleavage amounted to 0.07.

Regarding A2G U25C U41A A56G G70U U72C U78G, the self-cleavage came to 0.14.

A2G U49C G52C U60A A77U: the self-cleavage is 0.09.

For A2G U25A U26A U41C A47G C50A U72C, the self-cleavage is 0.11.

For the variant A2G U31A U72G, the self-cleavage amounted to 0.31.

Take A2G G30A U48C U69C A77G: the self-cleavage came out at 0.05.

Regarding A2G U26C A35G U49A U78C, the self-cleavage came out at 0.35.

Consider A2G U25A U49C U78A U80C, for which the self-cleavage came out at 0.19.

Take A2G G36U U67C U74C U78C: the self-cleavage was found to be 0.06.

In the case of A2G U26C U58A U60C, the self-cleavage is 0.04.

On to A2G U41A U49C U66C U69C, for which the self-cleavage stood at 0.03.

With A2G G10U G24A U26C U49C C79A U80C, the self-cleavage is 0.04.

Regarding A2G G24A U26C A45G U74C A75U, the self-cleavage amounted to 0.09.

Turning to A2G U48A A64G, the self-cleavage is 0.16.

Turning to A2G U31C U43A U60C U69C U74A U80C, the self-cleavage is 0.27.

Consider A2G U25C U54C, for which the self-cleavage was found to be 0.47.

Regarding A2G U41A U60C, the self-cleavage came out at 0.08.

In the case of A2G G16U A28G C29U G46C U60C A75U, the self-cleavage was 0.16.

In the case of A2G G9U U25C U48A C50U U60C, the self-cleavage came to 0.07.

Regarding A2G U41C U69A, the self-cleavage was found to be 0.51.

On to A2G U74A U76C, for which the self-cleavage was found to be 1.15.

As to A2G U25C C32A U41C U66C, the self-cleavage was determined as 0.26.

Regarding A2U A3C A13U A57G U78C C81U, the self-cleavage was 1.25.

In the case of A2G U31C U58A, the self-cleavage amounted to 0.07.

Take A2G G16U U51C U54C U78C: the self-cleavage was found to be 0.09.

A2G U31G U51C U67A: the self-cleavage turned out to be 0.07.

For A2G U26C U60C A65G U66C U69C, the self-cleavage came to 0.17.

On to A2G U72C C79A, for which the self-cleavage was determined as 1.07.

As for A2G U54C A77G U78C, the self-cleavage is 0.42.

On to A2G U25C A56U U58C, for which the self-cleavage amounted to 0.31.

With A2G U51C U60A A65G, the self-cleavage is 0.09.

As for A2G G10A C11U U25C, the self-cleavage was 0.05.

Take A2G G19U A28U: the self-cleavage came out at 0.05.

For the variant A2G U54C U78C, the self-cleavage was found to be 0.69.

With A2G U60C U67C U69C, the self-cleavage was 0.17.

Turning to A2G U60C U66A U67C, the self-cleavage was determined as 0.09.

Take A2G U26C G36A G46A A56U U72G: the self-cleavage was determined as 0.04.

On to A2G G33A C38A A47G U48C U72C U78C, for which the self-cleavage is 0.05.

For the variant A2G U26A C71U, the self-cleavage was determined as 0.18.

Regarding A2G U25C C39A, the self-cleavage stood at 0.5.

In the case of A2G U31C A35G U43C, the self-cleavage was found to be 0.68.

For A2G G10U C59U, the self-cleavage was 0.29.

Values taken from the RNAGym collection of RNA variant scans (doi:10.1093/nar/gkz1192).
